Assay results published in paper doi:10.1101/2024.03.19.585761 (bioRxiv, 2024).

Molecular target: the molecule itself
Test: SEC-MALS

B1: Recombinant STREP-thioredoxin-HIS (rTRX) (natural protein)
chain: not shown
stoichiometry N: 2
